Laboratory results taken from PubChem BioAssay AID1745853 (National Center for Advancing Translational Sciences (NCATS), 2022).
Some of the results follow. Shown are side measurements of this screen, not its main read-out; they come without a call.

Legend:
Test in all cases: Primary Screen for Target Class Profiling of Small Molecule Inhibitors of Methyltransferases
[1] = biological target: Glycine N-methyltransferase (Homo sapiens) (UniProt Q14749); conditions: purified enzyme, MTase-Glo SAH luminescence; measured here: GNMT inhibition; at 40 µM; stronger effect = lower value
Method in brief: (§1)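 Each enzyme was assayed with SAM and its substrate. SAH formation detected by MTase-Glo luminescence; single-point 40 uM screen[…].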

[2] = biological target: Guanidinoacetate N-methyltransferase (Homo sapiens) (UniProt Q14353); conditions: purified enzyme, MTase-Glo SAH luminescence; measured here: GAMT inhibition; at 40 µM; stronger effect = lower value
Method in brief: as §1

[3] = biological target: Histamine N-methyltransferase (Homo sapiens) (UniProt P50135); conditions: purified enzyme, MTase-Glo SAH luminescence; measured here: HNMT inhibition; at 40 µM; stronger effect = lower value
Method in brief: as §1

[4] = biological target: Nicotinamide N-methyltransferase (Homo sapiens) (UniProt P40261); conditions: purified enzyme, MTase-Glo SAH luminescence; measured here: NNMT inhibition; at 40 µM; stronger effect = lower value
Method in brief: as §1

[5] = biological target: Phenylethanolamine N-methyltransferase (Homo sapiens) (UniProt P11086); conditions: purified enzyme, MTase-Glo SAH luminescence; measured here: PNMT inhibition; at 40 µM; stronger effect = lower value
Method in brief: as §1
On the % scale 0 is the no-effect control and ±100 the full control effect.

SMILES | activity change, negative = inhibition [1] | activity change, negative = inhibition [2] | activity change, negative = inhibition [3] | activity change, negative = inhibition [4] | activity change, negative = inhibition [5]
CCN(CC)CCCN1C(=O)c2ccc(-c3ccco3)n2CC1(C)C(=O)NC1CCCCCCC1 (stereo not given) | -10.2% | -1.06% | -5.7% | -14% | -2.23%
CC(=O)NC1CC2(CCN(C(=O)CCCNC(=O)OC(C)(C)C)CC2)Oc2ccccc21 (stereo not given) | -6.67% | -10.4% | -5.07% | -11.6% | -13.2%
Cc1nn2c(c1-c1ccccc1[S+](C)(=O)[O-])N(CCCc1ccccc1)CCC2 | -11.2% | -7.45% | -20.8% | -17% | -6.46%
COc1ccc(OC)c(NC(=O)CN(C)S(=O)(=O)c2ccc3[nH]c4c(c3c2)CCCC4)c1 | -7.25% | 1.89% | -3.97% | -1.97% | 0.047%
O=C(NCC1CCN(Cc2cccc(Cl)c2)CC1)[C@@H]1CCCN(c2ncnc3c2nc2n3CCCC2)C1 | -5.55% | -2.19% | -12.1% | -29.9% | -0.231%
CCOC(=O)c1cc2n(n1)CC(C)(C(=O)NCc1ccc(C)cc1)N(c1ccc(CC)cc1)C2=O (stereo not given) | 2.27% | 0% | 5.63% | 6.11% | 1.23%
CCC(C)NC(=O)c1ccc2c(=O)n(CC(C)C)c3nn(CC(=O)c4ccccc4)c(=O)n3c2c1 (stereo not given) | 0.509% | -1.6% | 5.3% | -6.35% | -1.64%
COc1ccc(NC(=O)Cn2nc3n(Cc4ccc(C)cc4)c(=O)c4ccccc4n3c2=O)cc1OC | 3.58% | 1.83% | 11.2% | 9.39% | 6.54%
COCCCNc1nc2c(S(=O)(=O)c3cc(C)ccc3C)nnn2c2ccccc12 | -17% | 4.5% | -1.93% | -4.14% | -7.41%
COC(=O)CNC(=O)c1cn2cc(-c3cccc(C(F)(F)F)c3)sc2n1 | -4.25% | -6.71% | -2.23% | -15.6% | -9.63%
CC1(O)CC(O)C2C(C(=O)O)=COC(OC3OC(CO)C(O)C(O)C3OC(=O)/C=C/c3ccc(O)cc3)C21 (stereo not given) | 1.17% | 5.19% | 1.57% | -8.86% | 5.51%
C=C(C)C(=O)O[C@H]1C[C@@](C)(OC(C)=O)[C@@]2(O)CC[C@@](C)(O)[C@H](OC(C)=O)[C@@]23OC(=O)C(COC)=C13 | 0% | 6.01% | 8.83% | -6.01% | 3.19%
CCC1c2ccc(C)n2CCN1C(=O)Nc1ccc2c(c1)OCCO2 (stereo not given) | -3.17% | 2.87% | -11% | -3.69% | -4%
CCOC(=O)c1cc2n(n1)CC(C)(C(=O)NCCOC)N(c1ccc(Cl)cc1)C2=O (stereo not given) | 4.81% | 4.49% | 7.42% | 0.491% | 2.22%
N#Cc1cccc(C(=O)Nc2ccc([C@H]3OCC(=O)N(Cc4ccc(F)cc4)[C@@H]3CO)cc2)c1 | -4.8% | -1.62% | -1.17% | -4.56% | 0.513%
CCOc1ccc(CCNC(=O)c2cc3n(n2)CC(C)(C(=O)NC2CCCC2)N(CC)C3=O)cc1 (stereo not given) | 8.03% | 1.84% | -0.547% | 8.08% | 4.89%
